Publication PMC2765987 (2009)
No constants are given. Whether binding was seen depends on the method and setting. Binding seen in cells or lysates may run through a third protein. Some results given as binding are weak or reduced against the parent protein; the word gives no strength. For part of these data: Where a sequence is shown, tags or fusion partners need not be part of it.

Assays:
[1] = target: T1, PP6R3, endogenous SAPS domain regulatory subunit of PP6 (human (endogenous in HEK293, HeLa, HepG2, Jurkat)) (UniProt Q5H9R7); test: co-IP; endogenous PP6R3 precipitated from cell extracts with immobilised sheep anti-PP6R3 antibody, overnight at 4°C, lysis buffer with 1% NP-40 and 150 mM NaCl; PP6c detected by immunoblotting; two rounds of immunoprecipitation for depletion
T1 sequence: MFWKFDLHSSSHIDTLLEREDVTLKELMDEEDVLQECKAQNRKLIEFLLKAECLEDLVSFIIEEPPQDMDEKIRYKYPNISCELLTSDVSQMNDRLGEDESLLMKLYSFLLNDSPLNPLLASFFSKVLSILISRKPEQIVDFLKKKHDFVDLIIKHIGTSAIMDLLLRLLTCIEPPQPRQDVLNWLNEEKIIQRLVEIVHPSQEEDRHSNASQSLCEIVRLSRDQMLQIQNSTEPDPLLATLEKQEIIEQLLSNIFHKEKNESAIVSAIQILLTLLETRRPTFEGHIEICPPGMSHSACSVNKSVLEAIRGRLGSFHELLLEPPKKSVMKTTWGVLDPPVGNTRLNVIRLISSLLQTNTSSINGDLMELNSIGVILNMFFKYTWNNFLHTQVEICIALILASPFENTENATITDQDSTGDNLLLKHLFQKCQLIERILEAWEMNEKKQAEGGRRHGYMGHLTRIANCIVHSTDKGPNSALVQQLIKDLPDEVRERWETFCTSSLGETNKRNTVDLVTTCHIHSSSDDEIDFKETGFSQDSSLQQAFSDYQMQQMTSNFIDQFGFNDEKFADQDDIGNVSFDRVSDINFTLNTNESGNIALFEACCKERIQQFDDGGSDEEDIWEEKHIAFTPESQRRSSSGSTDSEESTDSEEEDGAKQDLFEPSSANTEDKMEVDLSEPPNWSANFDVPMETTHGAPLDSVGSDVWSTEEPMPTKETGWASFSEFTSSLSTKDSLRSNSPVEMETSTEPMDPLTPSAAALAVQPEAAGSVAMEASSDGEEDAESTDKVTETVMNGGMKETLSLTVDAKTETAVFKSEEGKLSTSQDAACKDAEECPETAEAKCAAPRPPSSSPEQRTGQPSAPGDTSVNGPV

[2] = target: T2, FLAG-tagged full length PP6R3 mutant E204-205K (human) (UniProt Q5H9R7); test: co-IP; FLAG-tagged PP6R3 wild type and charge-reversal mutants expressed in HEK293 cells, precipitated with immobilised anti-FLAG antibody; co-precipitated endogenous PP6c quantified by fluorescent immunoblotting, normalised to FLAG staining, wild type set as 100; 3 independent experiments
T2 sequence: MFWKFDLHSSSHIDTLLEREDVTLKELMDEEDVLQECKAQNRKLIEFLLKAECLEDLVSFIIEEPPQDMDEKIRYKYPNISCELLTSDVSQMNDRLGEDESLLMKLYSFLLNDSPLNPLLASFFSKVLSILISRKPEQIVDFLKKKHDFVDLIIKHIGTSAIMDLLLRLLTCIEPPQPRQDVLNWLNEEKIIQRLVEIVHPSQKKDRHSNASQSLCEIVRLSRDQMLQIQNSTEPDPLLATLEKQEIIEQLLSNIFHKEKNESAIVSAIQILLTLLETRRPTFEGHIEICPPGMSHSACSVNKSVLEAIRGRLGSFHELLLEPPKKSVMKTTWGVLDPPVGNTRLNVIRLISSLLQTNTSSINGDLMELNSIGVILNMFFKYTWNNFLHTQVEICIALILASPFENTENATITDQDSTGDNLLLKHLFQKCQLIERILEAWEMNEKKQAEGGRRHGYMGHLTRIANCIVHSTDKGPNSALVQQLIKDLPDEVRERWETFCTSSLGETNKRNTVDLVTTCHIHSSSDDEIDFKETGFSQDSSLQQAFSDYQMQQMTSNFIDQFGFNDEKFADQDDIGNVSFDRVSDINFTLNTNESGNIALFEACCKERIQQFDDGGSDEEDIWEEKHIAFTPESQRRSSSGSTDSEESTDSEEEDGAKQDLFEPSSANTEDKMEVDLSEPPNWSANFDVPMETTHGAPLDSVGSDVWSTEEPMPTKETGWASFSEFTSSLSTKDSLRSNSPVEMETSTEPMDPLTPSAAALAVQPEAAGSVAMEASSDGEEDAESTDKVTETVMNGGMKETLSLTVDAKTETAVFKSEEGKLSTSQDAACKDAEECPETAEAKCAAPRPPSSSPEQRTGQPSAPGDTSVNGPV

[3] = target: T3, FLAG-tagged full length PP6R3 mutant D113R (human) (UniProt Q5H9R7); test: as above
T3 sequence: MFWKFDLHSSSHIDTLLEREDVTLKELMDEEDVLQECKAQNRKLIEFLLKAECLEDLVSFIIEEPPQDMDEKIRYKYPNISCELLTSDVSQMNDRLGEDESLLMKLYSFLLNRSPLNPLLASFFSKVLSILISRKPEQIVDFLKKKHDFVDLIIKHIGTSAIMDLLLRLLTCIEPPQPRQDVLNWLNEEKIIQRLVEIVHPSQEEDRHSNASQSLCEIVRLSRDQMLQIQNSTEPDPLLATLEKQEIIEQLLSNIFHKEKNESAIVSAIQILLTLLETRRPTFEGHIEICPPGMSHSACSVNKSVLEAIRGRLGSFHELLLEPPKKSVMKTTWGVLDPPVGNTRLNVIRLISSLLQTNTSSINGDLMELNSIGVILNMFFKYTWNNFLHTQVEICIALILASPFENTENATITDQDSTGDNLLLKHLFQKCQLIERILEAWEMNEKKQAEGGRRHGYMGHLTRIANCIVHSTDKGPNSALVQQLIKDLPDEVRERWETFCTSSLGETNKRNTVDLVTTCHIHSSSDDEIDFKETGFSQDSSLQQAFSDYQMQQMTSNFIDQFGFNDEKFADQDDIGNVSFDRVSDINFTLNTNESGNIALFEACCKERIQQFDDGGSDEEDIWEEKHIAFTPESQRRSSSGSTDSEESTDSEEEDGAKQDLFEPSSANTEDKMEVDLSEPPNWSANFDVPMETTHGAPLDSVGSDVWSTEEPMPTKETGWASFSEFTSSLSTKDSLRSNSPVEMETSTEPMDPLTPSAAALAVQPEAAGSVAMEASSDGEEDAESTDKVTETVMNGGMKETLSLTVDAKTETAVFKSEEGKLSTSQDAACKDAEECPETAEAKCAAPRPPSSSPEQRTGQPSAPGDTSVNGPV

[4] = target: T4, FLAG-tagged PP6R3 (full-length, residues 1-873) (human) (UniProt Q5H9R7); test: as above
T4 sequence: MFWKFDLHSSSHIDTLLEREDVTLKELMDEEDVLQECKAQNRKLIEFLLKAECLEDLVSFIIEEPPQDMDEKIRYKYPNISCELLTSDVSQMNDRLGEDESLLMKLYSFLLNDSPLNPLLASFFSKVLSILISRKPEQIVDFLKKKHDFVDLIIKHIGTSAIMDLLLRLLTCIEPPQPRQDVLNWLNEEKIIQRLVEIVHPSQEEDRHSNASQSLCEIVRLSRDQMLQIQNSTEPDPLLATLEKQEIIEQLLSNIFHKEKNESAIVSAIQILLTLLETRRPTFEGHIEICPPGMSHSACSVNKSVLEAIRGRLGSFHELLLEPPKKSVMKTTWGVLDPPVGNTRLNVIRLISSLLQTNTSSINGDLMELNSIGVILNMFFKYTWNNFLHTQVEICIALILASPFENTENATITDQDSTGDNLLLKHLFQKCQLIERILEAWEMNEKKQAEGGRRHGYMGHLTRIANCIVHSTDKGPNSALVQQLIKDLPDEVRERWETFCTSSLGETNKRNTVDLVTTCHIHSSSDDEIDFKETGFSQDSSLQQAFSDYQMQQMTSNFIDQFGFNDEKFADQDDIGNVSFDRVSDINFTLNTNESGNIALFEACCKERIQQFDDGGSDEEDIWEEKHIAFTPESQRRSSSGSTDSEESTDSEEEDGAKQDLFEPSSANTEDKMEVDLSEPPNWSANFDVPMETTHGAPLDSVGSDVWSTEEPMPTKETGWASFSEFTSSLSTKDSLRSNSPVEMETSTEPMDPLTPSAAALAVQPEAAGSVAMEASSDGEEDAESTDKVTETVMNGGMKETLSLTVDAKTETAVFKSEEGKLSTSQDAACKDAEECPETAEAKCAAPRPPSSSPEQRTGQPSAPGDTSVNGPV

[5] = target: T5, FLAG-tagged full length PP6R3 mutant E259-262K (human) (UniProt Q5H9R7); test: as above
T5 sequence: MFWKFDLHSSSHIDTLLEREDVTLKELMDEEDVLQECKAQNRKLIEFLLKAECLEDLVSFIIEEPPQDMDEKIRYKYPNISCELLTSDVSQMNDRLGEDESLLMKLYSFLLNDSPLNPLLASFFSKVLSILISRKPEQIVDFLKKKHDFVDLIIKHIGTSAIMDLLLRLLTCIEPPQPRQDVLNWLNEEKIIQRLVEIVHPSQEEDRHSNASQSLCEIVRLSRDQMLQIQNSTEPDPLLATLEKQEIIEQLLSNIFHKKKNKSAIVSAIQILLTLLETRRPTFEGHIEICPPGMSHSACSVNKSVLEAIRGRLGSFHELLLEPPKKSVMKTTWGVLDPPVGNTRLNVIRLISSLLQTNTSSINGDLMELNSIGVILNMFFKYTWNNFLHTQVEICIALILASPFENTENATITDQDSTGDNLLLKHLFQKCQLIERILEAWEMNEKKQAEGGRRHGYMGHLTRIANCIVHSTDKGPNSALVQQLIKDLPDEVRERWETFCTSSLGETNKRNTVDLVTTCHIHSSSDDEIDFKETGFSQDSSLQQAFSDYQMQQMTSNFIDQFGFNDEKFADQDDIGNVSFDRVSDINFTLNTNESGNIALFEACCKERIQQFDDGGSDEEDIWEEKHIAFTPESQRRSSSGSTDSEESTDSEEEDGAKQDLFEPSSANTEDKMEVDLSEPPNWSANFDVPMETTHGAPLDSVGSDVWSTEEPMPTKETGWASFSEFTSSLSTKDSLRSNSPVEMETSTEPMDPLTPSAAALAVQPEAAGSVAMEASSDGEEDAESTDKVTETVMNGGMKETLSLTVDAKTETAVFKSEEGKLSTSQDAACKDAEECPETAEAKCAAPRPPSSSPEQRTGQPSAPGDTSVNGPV

[6] = target: T1, PP6R3, endogenous SAPS domain regulatory subunit of PP6 (human (endogenous in HEK293, HeLa, HepG2, Jurkat)); test: co-IP; co-precipitation from extracts of HeLa, Jurkat and HepG2 cells (not shown)
[7] = target: T6, FLAG-tagged PP6R3 truncated SAPS region (1-355) (human) (UniProt Q5H9R7); test: co-IP; FLAG-tagged PP6R3 and fragments expressed in HEK293 cells, precipitated with anti-FLAG (M2) beads; endogenous PP6c detected by immunoblotting
T6 sequence: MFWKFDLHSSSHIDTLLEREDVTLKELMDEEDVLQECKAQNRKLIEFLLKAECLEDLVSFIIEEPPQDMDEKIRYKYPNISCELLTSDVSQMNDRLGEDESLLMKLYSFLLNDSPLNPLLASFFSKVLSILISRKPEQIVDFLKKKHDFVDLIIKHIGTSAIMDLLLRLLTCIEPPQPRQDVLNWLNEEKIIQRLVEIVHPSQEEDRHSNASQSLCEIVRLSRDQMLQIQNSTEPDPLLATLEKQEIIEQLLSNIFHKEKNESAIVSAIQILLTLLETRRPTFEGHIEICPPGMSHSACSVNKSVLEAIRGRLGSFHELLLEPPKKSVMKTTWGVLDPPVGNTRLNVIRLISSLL

[8] = target: T4, FLAG-tagged PP6R3 (full-length, residues 1-873) (human); test: as above
[9] = target: T7, FLAG-tagged PP6R3 SAPS region (residues 1-513) (human) (UniProt Q5H9R7); test: as above
T7 sequence: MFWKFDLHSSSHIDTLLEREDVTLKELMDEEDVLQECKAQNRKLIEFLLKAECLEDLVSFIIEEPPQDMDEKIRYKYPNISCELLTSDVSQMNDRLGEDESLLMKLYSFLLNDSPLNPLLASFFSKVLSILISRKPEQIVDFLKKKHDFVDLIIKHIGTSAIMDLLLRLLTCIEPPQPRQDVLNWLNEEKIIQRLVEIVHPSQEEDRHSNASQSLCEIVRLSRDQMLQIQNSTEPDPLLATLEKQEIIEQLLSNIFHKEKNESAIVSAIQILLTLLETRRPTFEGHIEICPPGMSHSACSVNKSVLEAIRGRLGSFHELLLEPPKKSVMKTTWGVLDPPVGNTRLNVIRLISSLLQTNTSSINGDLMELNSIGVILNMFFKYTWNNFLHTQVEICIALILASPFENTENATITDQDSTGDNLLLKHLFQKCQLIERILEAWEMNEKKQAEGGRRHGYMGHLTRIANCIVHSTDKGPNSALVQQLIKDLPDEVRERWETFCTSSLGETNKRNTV

B1: PP6 catalytic subunit, endogenous (enzyme, UniProt O00743 1-305)
chain: MAPLDLDKYVEIARLCKYLPENDLKRLCDYVCDLLLEESNVQPVSTPVTVCGDIHGQFYDLCELFRTGGQVPDTNYIFMGDFVDRGYYSLETFTYLLALKAKWPDRITLLRGNHESRQITQVYGFYDECQTKYGNANAWRYCTKVFDMLTVAALIDEQILCVHGGLSPDIKTLDQIRTIERNQEIPHKGAFCDLVWSDPEDVDTWAISPRGAGWLFGAKVTNEFVHINNLKLICRAHQLVHEGYKFMFDEKLVTVWSAPNYCYRCGNIASIMVFKDVNTREPKLFRAVPDSERVIPPRTTTPYFL
In the case of B1, the binding [1] is reported as “binds”, the binding [2] is reported as “binds” and the binding [3] is reported as “binds”. For the same binder, the binding [4] was “binds”, the binding [5] was “binds” and the binding [6] was “binds”. The binding [7] was “no binding”, the binding [8] was “binds” and the binding [9] was “binds”.
